Experimental data published in patent publication US20230338565A1, “ANTIBODY DRUG CONJUGATE, PREPARATION METHOD THEREFOR AND USE THEREOF” (SICHUAN KELUN-BIOTECH BIOPHARMACEUTICAL CO., LTD., priority 2020, published 2023).

What was measured:
[1] = molecular target: T1, human Claudin 18.2 (Homo sapiens, UniProt P56856); assay: Cell ELISA on L929-Claudin 18.2 cells; assay type: binding
T1 construct: expressed in transfected cells; cells formaldehyde-fixed for the cell ELISA
Protocol: Human Claudin18.2 belongs to the tetraspanin family and has a complex structure. Cell ELISA was thus carried out to maintain the structure of Claudin18.2. The stable cell lines L929-Claudin 18.2 constructed in 6.1 were used for detection. Specifically, L929-Claudin 18.2 adherent cells were detached by 2 mM EDTA treatment. The cells were resuspended and adjusted to 2×10^5/mL and 100 μL of the resuspension was plated into a 96-well plate and incubated overnight at 37° C. The next day, the media was removed, and the plate was washed with PBS once. 100 μL/well 4% formaldehyde was added to the plate. After 30 min of incubation at room temperature, formaldehyde was removed, followed by being washed twice with PBS. Blocking buffer (PBS containing 2% BSA) was then added to the plate at 100 μL/well, and incubated at 37° C. for 2 h. After removal of blocking buffer, 100 μL/well of serially diluted antibodies (starting from 1 μM, with 4-fold dilution, for a total of 11 concentrations) were added to the corresponding wells, which were incubated at 37° C. for 2 h afterwards. The plate was washed with 250 μL PBST for 5 times, and was allowed to stand for 2 min each time. 100 μL/well of horseradish peroxidase labeled anti-Human IgG secondary antibody (HRP-anti-Human IgG, Jackson ImmunoResearch, 109-035-003) diluted 1:10000 in PBS (containing 2% BSA) was added to the plate. The plate was incubated at 37° C. for 1 h and washed with 250 μL of PBST 6 times, wherein the plate was allowed to stand for 2 min each time. 100 μL/well of TMB solution (Thermo, 34029) was added. The reactions were incubated at 37° C. for 20 min and stopped with 50 μL 2 mol/L H2504. The OD450 nm absorbance values were obtained on a plate reader (MD, SpectraMax M2) and the results were subjected to curve fitting by Graphpad Prism.
A cell-based ELISA method was carried out to determine the affinity of 2C6.9-TL001 (DAR: 7.12) to Claudin 18.2 on the surface of cell membrane. […]

[2] = system: HuPrime gastric cancer GA0006 (high expression Claudin18.2 stomach tumor); assay: 12.4 HuPrime gastric cancer GA0006 + Balb/c Nude mice PDX model; assay type: in vivo; details: DAR 7.12
[3] = system: HEK293T-Claudin 18.2 cells; assay: Killing activity of 2C6.9-ADC (CCK8); assay type: cell-based, human; details: DAR 7.12; HEK293T-Claudin 18.2 vs HEK293T-Claudin 18.1
[4] = system: NCI-N87-Claudin18.2 subcutaneous transplanted tumor; assay: 12.2 2C6.9-TL001 versus 2C6.9 mAb + chemotherapy in CDX model; assay type: in vivo, Balb/c Nude mice; details: DAR 7.12
[5] = system: NUGC-4 subcutaneous transplantation tumor; assay: 12.3 2C6.9-TL001 with different DAR values in CDX (NUGC-4) model; assay type: in vivo, Balb/c Nude mice; details: Day 21
[6] = system: HEK293T-Claudin 18.1 cells; assay: Killing activity of 2C6.9-ADC (CCK8); assay type: cell-based, human; details: 48 h
[7] = system: NCI-N87-Claudin18.2 gastric cancer transplanted tumor; assay: 12.1 NCI-N87-Claudin18.2 + Balb/c Nude mice CDX model; assay type: in vivo; details: 2C6.9-TL001 DAR 7.12, 2C6.9-TL002 DAR 6.95
[8] = 3 mg/kg tail vein twice a week for 3 weeks, Day 21, 7 mice/group
[9] = 3 mg/kg tail vein twice a week for 3 weeks
[10] = 10 mg/kg tail vein twice a week for 3 weeks
[11] = 1 mg/kg tail vein twice a week x6, Day 21, 7 mice/group
[12] = 1 mg/kg tail vein twice a week x6, Day 21
[13] = 3 mg/kg tail vein twice a week x6, Day 21, 7 mice/group
[14] = 3 mg/kg tail vein twice a week x6, Day 21

B1: 2C6.9-hz11: humanized anti-human Claudin 18.2 IgG1 kappa monoclonal antibody; heavy chain SEQ ID NO: 18, light chain SEQ ID NO: 20 (antibody)
heavy: QVQLQESGPGLVKPSETLSLTCTVSGFSLTRYGVSWIRQPPGKGLEWIGVIWGDGNTNYNPSLKSRVTISKDSSKSQVSLKLSSVTAADTAVYYCARVNFGNALDYWGQGTLVTVSS[human IgG1 constant region not spelt out]
light: DIVMTQSPDSLAVSLGERATINCKSSQSLLNSGNQKNYLTWYQQKPGQPPKLLIYWASTRDSGVPDRFSGSGSGTDFTLTISSLQAEDVAVYYCQNDFIFPLTFGGGTKVEIKRTVAAPSVFIFPPSDEQLKSGTASVVCLLNNFYPREAKVQWKVDNALQSGNSQESVTEQDSKDSTYSLSSTLTLSKADYEKHKVYACEVTHQGLSSPVTKSFNRGEC
modifications: Full length amino acid sequence of heavy chain of humanized antibody 2C6.9-hz11; Full length amino acid sequence of light chain of humanized antibody 2C6.9-hz11/2C6.9-hz21
[1]; L929-Claudin 18.2 cell ELISA, same experiment, result omitted
  affinity to human Claudin 18.2 (in words): close to that of antibody 2C6.9-hz21

B2: 2C6.9-TL001 (DAR: 7.12): 2C6.9-TL001 from conjugation feed ratio 9:1, toxin-to-antibody ratio 7.12 (conjugate)
heavy: B1 heavy with D54E
light: B1 light
[1]; cell-based ELISA, L929-Claudin 18.2 cells, DAR 7.12
  EC50 value of the affinity to Claudin 18.2 on the cell membrane surface: 0.03994 µg/mL
[2]; 3 mg/kg tail vein twice a week x5, Day 17, 7 mice/group
  Tumor regression PR (mice with partial regression): 4
[2]; 3 mg/kg tail vein twice a week x5, Day 17
  TGI (%): 94.72%
[2]; 3 mg/kg tail vein twice a week x5, Day 24, 7 mice/group
  Tumor regression PR (mice with partial regression): 6
[2]; 3 mg/kg tail vein twice a week x5, Day 24
  TGI (%): 103.76%
[2]; 10 mg/kg tail vein twice a week x5, Day 17, 7 mice/group
  Tumor regression CR (mice with complete regression): 7
[2]; 10 mg/kg tail vein twice a week x5, Day 24, 7 mice/group
  Tumor regression CR (mice with complete regression): 7
[2]; 10 mg/kg tail vein twice a week x5, Day 24
  TGI (%): 113.70%
[3]
  difference of killing activity, Claudin 18.2 cells versus Claudin 18.1 cells: about 8 times
[4]; [8]
  Tumor regression CR (mice with complete regression): 5
  Tumor regression PR (mice with partial regression): 2
[4]; 3 mg/kg tail vein twice a week for 3 weeks, Day 21
  TGI (%): 125.73%
[4]; 3 mg/kg tail vein twice a week, Day 11, 7 mice/group
  Tumor regression PR (mice with partial regression): 6
[4]; 3 mg/kg tail vein twice a week, Day 11
  TGI (%): 121.68%
[5]; [9]
  TGI (%): 49.60%
  Tumor volume (mm^3) (x ± SEM): 670.96 ± 113.92 mm^3
[5]; [10]
  TGI (%): 87.17%
  Tumor volume (mm^3) (x ± SEM): 250.04 ± 28.73 mm^3
[6]
  EC50 for killing HEK293T-Claudin18.1: 3.9 µg/mL

B3: 2C6.9-TL002: ADC prepared by conjugating TL002 with humanized monoclonal antibody 2C6.9 (conjugate)
heavy: B1 heavy with D54E
light: B1 light
[6]
  EC50 for killing HEK293T-Claudin18.1: 30.59 µg/mL
[7]; [11]
  Tumor regression CR (mice with complete regression): 0/0
  Tumor regression PR (mice with partial regression): 0/0
[7]; [12]
  T/C (%): 95.94%
  Tumor volume (mm^3) (x ± SEM): 461.02 ± 36.32 mm^3
[7]; [13]
  Tumor regression CR (mice with complete regression): 0
  Tumor regression PR (mice with partial regression): 1
[7]; [14]
  T/C (%): 70.62%
  TGI (%): 40.11%
  Tumor volume (mm^3) (x ± SEM): 339.28 ± 43.91 mm^3

B4: 2C6.9-TL003: ADC prepared by conjugating TL003 with humanized monoclonal antibody 2C6.9 (conjugate)
heavy: B1 heavy with D54E
light: B1 light
[6]
  EC50 for killing HEK293T-Claudin18.1: 8.258 µg/mL

Substitutions are numbered along the chain they refer to.
